# Test results as given in the supplement of paper PMC9334596.
# “And” between values parts separate entries of the source, which are not always exact repeats. Identical values can stand only once. Over roughly 5,300 compounds, “PER2::LUC luminescence relative to vehicle control” has its median near 0.96; the highest 2% begin near 1.3. This is one part of the list.
# System: mPer2Luc MEF
# Experiment: PER2::LUC luminescence relative to vehicle control (fold of vehicle); higher = higher PER2::LUC reporter signal
# Settings: 10 µM
# How it was run: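 Compounds from commercial libraries were added at 10 μM to 384-well plates seeded 48 h earlier with ~3000 mPer2Luc mouse embryonic fibroblasts per well. The cells were kept in DMEM with 10% FBS at 37 °C and 5% CO2. Luminescence was read with ONE-Glo 24 h and 30 h after treatment, then an alamarBlue viability assay was run. Values are PER2::LUC luminescence relative to vehicle control, as fold change.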
Compound,PER2::LUC luminescence (time after treatment 24 h),PER2::LUC luminescence (time after treatment 30 h)
O=C1[C@@H]2[C@H]3CC[C@H](C3)[C@@H]2C(=O)N1C[C@@H]1CCCC[C@H]1CN1CCN(c2nsc3ccccc23)CC1,0.419,0.621
O=Nc1c(O)[nH]c2c(Cl)c(Cl)ccc12,1.05,1.07
Cn1cnc2c(F)c(Nc3ccc(Br)cc3F)c(C(=O)NOCCO)cc21,0.652 and 0.518,0.54 and 0.484
C#Cc1cccc(Nc2ncnc3cc(OCCOC)c(OCCO)cc23)c1,0.945 and 0.667,0.784 and 0.637
CC[C@H](CC#N)OC(=O)N[C@@H](C)c1cccc(NC(=O)Nc2ccc(-c3cnco3)c(OC)c2)c1,0.519,0.497
CC(=O)c1ccc[nH]1,0.826,0.748
CO[C@@H]1[C@H](OC(=O)/C=C/C=C/C=C/C=C/C(=O)O)CC[C@]2(CO2)[C@H]1[C@@]1(C)O[C@@H]1CC=C(C)C,0.781,0.78
C#CCOc1ccc2c(c1)c(-c1ccc(C(C)C)cc1)nc(=O)n2C(C)C,0.714,0.726
COc1cc2nc(N3CCCC3)nc(NCCCCCN3CCCC3)c2cc1OC,0.307,0.403
NC(=O)c1cnccn1,0.986 and 1,0.989 and 0.965
CC(C)(C)CC(C)(C)c1cc(Cc2cc(C(C)(C)CC(C)(C)C)cc(-n3nc4ccccc4n3)c2O)c(O)c(-n2nc3ccccc3n2)c1,0.862,1.02
Nc1nc(N)c(N=O)c(OCC2CCCCC2)n1,1.08,1.14
COc1c(-c2ccc3cc(NS(C)(=O)=O)ccc3c2)cc(-n2ccc(=O)[nH]c2=O)cc1C(C)(C)C,1.06,1.08
CC(=O)O[C@H]1C(=O)[C@@]2(C)[C@H]([C@H](OC(=O)c3ccccc3)[C@]3(O)C[C@H](OC(=O)[C@H](O)[C@@H](NC(=O)c4ccccc4)c4ccccc4)C(C)=C1C3(C)C)[C@]1(OC(C)=O)CO[C@@H]1C[C@@H]2O,0.59 and 0.416,0.561 and 0.534
Cc1[nH]c(=O)c(C#N)cc1-c1ccc2nccn2c1,0.995,0.827
NC(=O)c1cccc(-c2cccc(OC(=O)NC3CCCCC3)c2)c1,1.27,1.36
O=C([O-])[C@H](O)[C@@H](O)[C@H](O)[C@H](O)CO.O=C([O-])[C@H](O)[C@@H](O)[C@H](O)[C@H](O)CO.[Ca+2],0.98,0.977
C/C=C/c1ccc(OC)cc1,0.881 and 1.03,0.883 and 1.12
C=C(C)[C@@H]1CC[C@]2(CO)CC[C@]3(C)[C@H](CC[C@@H]4[C@@]5(C)CC[C@H](O)C(C)(C)[C@@H]5CC[C@]43C)[C@@H]12,0.986,0.977
CCCN(CCC)CCc1cccc2c1CC(=O)N2,0.821,0.925
O[C@H]1[C@H](O)[C@@H](O)[C@H](O)[C@@H](O)[C@H]1O,1.14,0.974
N=C(N)c1ccc(N)cc1,0.971,1.01

Compound,PER2::LUC luminescence (time after treatment 24 h),PER2::LUC luminescence (time after treatment 30 h)
COc1ccc2c(c1)CC[C@@H]1[C@@H]2CC[C@]2(C)[C@@H](O)CC[C@@H]12,1.15,1.18
CCOc1ccc(-n2c(C(C)N(Cc3cccnc3)C(=O)Cc3ccc(OC(F)(F)F)cc3)nc3ncccc3c2=O)cc1 (centres undefined),0.97,0.944
COC(=O)C[C@](O)(CCCC(C)(C)O)C(=O)O[C@@H]1C(OC)=C[C@]23CCCN2CCc2cc4c(cc2[C@H]13)OCO4,1.07,1
CCC1(C)OC(=O)N(C)C1=O (centres undefined),0.982,0.882
O=C(O)c1nc(=O)[nH]c(=O)[nH]1,0.981,1.09
NC(=O)CCCCn1ccc(NC(N)=NCC(F)(F)F)n1,0.917,1.04
O=C(OOC(=O)c1ccccc1)c1ccccc1,1.2,0.843
Nc1cc(=O)[nH]c(N)n1,1.03,0.934
N[C@@H](Cc1c[nH]c2ccccc12)C(=O)O,1.04 and 0.95,1 and 0.948
CCC(C)[C@H](NC(=O)[C@H](CCCN=C(N)N)NC(=O)[C@H](CCC(=O)O)NC(=O)[C@@H]1CCCN(C(=O)[C@H](CO)NC(=O)[C@@H](NC(=O)[C@@H](N)CCCN=C(N)N)C(C)CC)C1)C(=O)N[C@@H](CC(=O)O)C(=O)N[C@@H](C)C(=O)N[C@@H](CC(C)C)C(=O)O (some centres undefined),0.943,0.843
CC(O)Cn1cnc2c1c(=O)n(C)c(=O)n2C (centres undefined),1.04,1.06
COC1(C2=NCCN2)COc2ccccc2O1 (centres undefined),1.02,1.01
CC(C)NC[C@@H](O)COc1ccc(CC(N)=O)cc1,1.01,0.958
NS(=O)(=O)c1cc2c(cc1C(F)(F)F)NCNS2(=O)=O,0.595,0.928
OC[C@H]1O[C@@H](n2cnc3c(N[C@H]4CCC[C@@H]4O)ncnc32)[C@H](O)[C@@H]1O,0.991,0.94
COc1ccccc1N1CCN(CCCCNC(=O)c2ccc(-c3ccc(C(C)=O)cc3)cc2)CC1,0.815,0.7
NC(=O)CCCCC1CCSS1 (centres undefined),0.836 and 0.804,0.96 and 0.852
C=C(C)[C@H]1CC=C(C)CC1,1 and 1.16,0.975 and 0.762
C#Cc1cnc2nc(O)n(C(CC)CC)c2n1,0.979,0.944
CS(=O)(=O)OCCCCOS(C)(=O)=O,1.11,0.735
Cc1c(NC(=O)c2cccnc2)c(=O)n(-c2ccccc2)n1C,1.03 and 0.915,1.03 and 1.04
N#Cc1ccc(-c2csc(NN=C3CCCC3)n2)cc1,1.13,1.23

Compound,PER2::LUC luminescence (time after treatment 24 h),PER2::LUC luminescence (time after treatment 30 h)
O=C(/C=C/c1ccc(O)cc1)c1ccc(O)cc1O,1.24,1.41
O=[N+]([O-])c1cn(CCN2CCOCC2)cn1,0.977,0.974
CN1CC[C@@H](NC(=O)Nc2ccc(C#N)cc2)C[C@@H]1c1nc2ccccc2[nH]1,0.868,0.918
Cc1ccc(C(=O)Nc2ccc(Oc3cc4cnn(C)c4cc3-c3cn[nH]c3)c(F)c2)c(=O)n1-c1ccc(F)cc1,0.701,0.628
N#CCNC(=O)c1ccc(-c2ccnc(Nc3ccc(N4CCOCC4)cc3)n2)cc1,0.18,0.271
COc1ccc(-c2coc3c(O)c(O)c(OC)cc3c2=O)cc1,1.31,1.23
OCc1c[nH]c2ccccc12,0.842,0.816
Cc1cnc(-c2cc(N3CCN(C(=O)CCS(C)(=O)=O)CC3)ncc2Cl)c(C)c1,1.29,1.07
CC(C)(CO)c1cc2cc(NC(=O)C3(c4ccc5c(c4)OC(F)(F)O5)CC3)c(F)cc2n1C[C@@H](O)CO,0.859,0.842
CN1C(=O)CC[C@H]1c1cccnc1,1.12 and 0.907,0.85 and 0.96
Cc1c(CN2CCN(C(=O)[C@H](C)O)CC2)sc2c(N3CCOCC3)nc(-c3cnc(N)nc3)nc12,0.329,0.328
CN1CCN(CCCCN2C(=O)CN(/N=C/c3ccc(-c4ccc(Cl)cc4)o3)C2=O)CC1,0.781,0.684
CN1CCc2c(c3ccccc3n2Cc2ccc(C(=O)NO)cc2)C1,0.91 and 0.777 and 0.742,0.939 and 0.672 and 0.684
CC[C@@H]1C(=O)OC[C@@H]1Cc1cncn1C,,0.96 and 0.912 and 0.796
COc1ccccc1Oc1c(NS(=O)(=O)c2ccc(C)cn2)nc(-c2ccncc2)nc1OC,0.901,1.02
CCn1c(=O)[nH]c2cc(Cl)c(Cl)cc21,0.951,0.812
CNc1cc(-c2cccc(Cl)c2Cl)nc(N)n1,0.923,1.05
C[C@@H](O[C@H]1OCCN(Cc2nn(P(=O)(O)O)c(=O)[nH]2)[C@H]1c1ccc(F)cc1)c1cc(C(F)(F)F)cc(C(F)(F)F)c1,0.47,0.861
CCC(C)(Oc1ccc(C2(c3ccc(OC(C)(CC)C(=O)O)cc3)CCCCC2)cc1)C(=O)O (centres undefined),1.34,1.06
COc1cc2nccc(Oc3ccc(NC(=O)NC4CC4)c(Cl)c3)c2cc1C(N)=O,0.795 and 0.608,0.771 and 0.637
c1nc2c(NC3CCCCC3)nc(Nc3ccc(N4CCOCC4)cc3)nc2[nH]1,0.991,0.895
CCN(CC)CC(=O)Nc1c(C)cccc1C,1.05 and 0.941 and 0.828,1.02 and 1.03 and 0.851

Compound,PER2::LUC luminescence (time after treatment 24 h),PER2::LUC luminescence (time after treatment 30 h)
CC(C)c1noc(C2CCN(c3ncnc(Nc4ccc(S(C)(=O)=O)cc4F)c3[N+](=O)[O-])CC2)n1,0.972,0.789
O=C(O)[C@@H]1C[C@H](C(=O)O)N1,1.05,1.17
CC(=O)OCC(=O)[C@@]12OC(C)(C)O[C@@H]1C[C@H]1[C@@H]3C[C@H](F)C4=CC(=O)C=C[C@]4(C)[C@@]3(F)[C@@H](O)C[C@@]12C,0.854,1.05
c1ccc2c(CC3=NCCN3)cccc2c1,1.01,1.01
NC(N)=NC(=O)c1nc(Cl)c(N)nc1N,0.989,1.05
O=c1oc2c(O)c(O)cc3c(=O)oc4c(O)c(O)cc1c4c23,1.18,1.25
NC(=O)NCCC[C@H](N)C(=O)O,0.977,0.923
C[C@@H]1O[C@@H](O[C@H]2[C@H](Oc3cc(O)c4c(=O)c(O)c(-c5ccc(O)cc5)oc4c3)O[C@H](CO)[C@@H](O)[C@@H]2O)[C@H](O)[C@H](O)[C@H]1O,1.24,0.968
CSC(=N)NCCC[C@H](N)C(=O)O,0.874,0.765
S=C(S)N1CCCC1,1.27,1.02
Cc1o[nH]c(=O)c1CCC(N)C(=O)O (centres undefined),0.959,0.829
CC(C)COc1ccc(CNC(=O)N(Cc2ccc(F)cc2)C2CCN(C)CC2)cc1,0.639,0.607
C=CC[C@@H]1[C@H](O)CC[C@@]2(C)[C@H]1CC[C@@H]1[C@@H]2CC[C@]2(C)[C@@H]([C@H](C)CCCC(C)C)CC[C@@H]12,0.994,0.987
CC(=O)CC(c1ccccc1)c1c(O)c2ccccc2oc1=O (centres undefined),1.23,0.93
CN(c1ccccc1CNc1nc(Nc2ccc3c(c2)CC(=O)N3)ncc1C(F)(F)F)S(C)(=O)=O,0.377,0.28
CCO/N=C1\c2ccccc2-c2nc(C#N)c(C#N)nc21,0.664,0.619
NS(=O)(=O)c1cc2c(cc1Cl)NC(C1CC3C=CC1C3)NS2(=O)=O (centres undefined),1.03,0.932
O=C1NS(=O)(=O)c2ccccc21,0.864,1.04
CC/C(=C(\c1ccc(O)cc1)c1ccc(OCCNC)cc1)c1ccccc1,0.74,0.756
